Assay results: the RNAGym collection of RNA variant scans (doi:10.1101/gad.245936.114)
This sample is rich in variants without activity.

B1: tRNA (parent)
chain: CUCUCGGUAGCCAAGUUGGUUUAAGGCGCAAGACUUUAAUUUAUCACUACGAAAUCUUGAGAUCGGGCGUUCGACUCGCCCCCGGGAGAUUUUUUCCUCGAGCAA

Variants of: B1
Assay: nonsense suppression (GFP-seq) (ratio to wild type); higher = more function; SUP4oc tRNA, yeast GFP reporter sort-seq
Summary of the method: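 Yeast carrying genome-integrated SUP4oc tRNA variants from a library with ~3% random mutations were grown in raffinose/galactose medium with 80 mg/L adenine. Each strain also carried a galactose-driven GFP ochre reporter and RFP. Cells were sorted into GFP/RFP bins, and each bin was Illumina-sequenced (phred ≥30). Nonsense suppression (GFPSEQ) is the bin median GFP/RFP, weighted by each variant's estimated cell share per bin, relative to wild-type SUP4oc; variants needed ≥100 reads and ≥30 cells.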

Nonsense suppression, ≤ 0.026:
CUCUCGGUAGCCAAGUUGGUUUAAGGCGCAAGACUUUAAUUUAUCACUACGAAAUCUUAAGAUCGGACGUUCGACUCGCCCCCGGGAGAUUUUUUCCUCGAGCAA [G59A G67A]
CUCUCGGUAGCCAAGUUGGUUUAAGGCGCAAGACUUUAAUUUAUCACUACGAAAUCUGAAGAGCGGGCGUUCGACUCGCCCCCGGGAGAUUUUUUCCUCGAGCAA [U58G G59A U63G]
CUCUCGGUAGCCAAGUUGGUUUAAGGCGCAAGACUUUAAUUUAUCACUACGAAAUCUGGAGAUCGGGCGUUCGACUCGCCCCCGGGCGAUUUUUUCCUCGAGCAA [U58G A87C]
CUCUCGGUAGCCAAGUUGGUUUAAGGCGCAAGACUUUAAUUUAUCACUACGAAAUCUUAAGAUCGGGCGUUCGACUCGCCCCCGUGAGAUUUUUUCCUCGAGCAA [G59A G85U]
CUCUCGGUAGCCAAGUUGGUUUAAGGCGCAAGACUUUAAUUUAUCACUACGAAAUCUGGAGAUCGGGCGAUCGACUCGACCCCGGGAGAUUUUUUCCUCGAGCAA [U58G U70A C79A]
CUCUCGGUAGCCAAGUUGGUUUAAGGCGCAAGACUUUAAUUUAUCACUACGAAAUCUUAAGACCGGGCGUUCGACUCGCACCCGGGAGAUUUUUUCCUCGAGCAA [G59A U63C C80A]
CUCUCGGUAGCCAAGUUGGUUUAAGGCGCAAGACUUUAAUUUAUCACUACGAAAUCUGGAGAUCGCGCGUUCAACUCGCCCCCGGGAGAUUUUUUCCUCGAGCAA [U58G G66C G73A]
CUCUCGGUAGCCAAGUUGGUUUAAGGCGCAAGACUUUAAUUUAUCACUACGAAAUCUUAAGACCGGGCGUUCGACUCGCCCCCGGGAGAUUUUUUCCUCGAGCAA [G59A U63C]
CUCUCGGUAGCCAAGUUGGUUUAAGGCGCAAGACUUUAAUUUAUCACUACGAAAUCUGGAGAUCGGGCGUUCAACUCGCCCCCGGGAGAUUUUUUCCUCGAGCAA [U58G G73A]
CUCUCGGUAGCCAAGUUGGUUUAAGGCGCAAGACUUUAAUUUAUCACUACGAAAUCUGGACAUCGGGCGUUCGACUCGCCCCCGGGAGAUUUUUUCCUCGAGCAA [U58G G61C]
CUCUCGGUAGCCAAGUUGGUUUAAGGCGCAAGACUUUAAUUUAUCACUACGAAAUCUGGAUAUCGGGCGUUCGACUCGCCCCCGGGAGAUUUUUUCCUCGAGCAA [U58G G61U]
CUCUCGGUAGCCAAGUUGGUUUAAGGCGCAAGACUUUAAUUUAUCACUACGAAAUCUUAAGAUGGGGCGCUCGACUCGCCCCCGGGAGAUUUUUUCCUCGAGCAA [G59A C64G U70C]
CUCUCGGUAGCCAAGUUGGUUUAAGGCGCAAGACUUUAAUUUAUCACUACGAAAUCUUAAAAUCGGGCGUUCGACUCGCCUCCGGGAGAUUUUUUCCUCGAGCAA [G59A G61A C81U]
CUCUCGGUAGCCAAGUUGGUUUAAGGCGCAAGACUUUAAUUUAUCACUACGAAAUCUGGAGAUCCGGCGUUCGACUCGCCCGCGGGAGAUUUUUUCCUCGAGCAA [U58G G65C C82G]
CUCUCGGUAGCCAAGUUGGUUUAAGGCGCAAGACUUUAAUUUAUCACUACGAAAUCUUAAGAUCGGGCGUUCGCCUCGCCCCCGGGAGAUUUUUUCCUCGAGCAA [G59A A74C]
CUCUCGGUAGCCAAGUUGGUUUAAGGCGCAAGACUUUAAUUUAUCACUACGAAAUCUGGAGAUCGGGCGUUCGGAUCGCCCCCGGGAGAUUUUUUCCUCGAGCAA [U58G A74G C75A]
CUCUCGGUAGCCAAGUUGGUUUAAGGCGCAAGACUUUAAUUUAUCACUACGAAAUCUGGAGAUCGGGCGUUCGAGUCGCCCCCGGGAGAUUUUUUCCUCGAGCAA [U58G C75G]
CUCUCGGUAGCCAAGUUGGUUUAAGGCGCAAGACUUUAAUUUAUCACUACGAAAUCUGGAGAGCGGGCGUUCGACUCGCCCCCGGGAGAUUUUUUCCUCGAGCAA [U58G U63G]
CUCUCGGUAGCCAAGUUGGUUUAAGGCGCAAGACUUUAAUUUAUCACUACGAAAUCUUAAGAUCUGGCGUUCGACUCGCCCCCGGGAGAUUUUUUCCUCGAGCAA [G59A G65U]
CUCUCGGUAGCCAAGUUGGUUUAAGGCGCAAGACUUUAAUUUAUCACUACGAAAUCUUAAGAUCGGGCGUUCGACUGGCCCCCGGGAGAUUUUUUCCUCGAGCAA [G59A C77G]
CUCUCGGUAGCCAAGUUGGUUUAAGGCGCAAGACUUUAAUUUAUCACUACGAAAUCUGGAGAUCCGGCCUUAGACUCGGCCCCGGGAGAUUUUUUCCUCGAGCAA [U58G G65C G69C C72A C79G]
CUCUCGGUAGCCAAGUUGGUUUAAGGCGCAAGACUUUAAUUUAUCACUACGAAAUCUUAAGAUCGGGCGUUCGACUCGCCACCGCGAGAUUUUUUCCUCGAGCAA [G59A C81A G85C]
CUCUCGGUAGCCAAGUUGGUUUAAGGCGCAAGACUUUAAUUUAUCACUACGAAAUCUUAAGAUCGGGCGUUCGACUCGCCCACGGGAGAUUUUUUCCUCGAGCAA [G59A C82A]
CUCUCGGUAGCCAAGUUGGUUUAAGGCGCAAGACUUUAAUUUAUCACUACGAAAUCUGGAGAUUGGGCGUUCGACUCGCGCCCGGGAGAUUUUUUCCUCGAGCAA [U58G C64U C80G]
CUCUCGGUAGCCAAGUUGGUUUAAGGCGCAAGACUUUAAUUUAUCACUACGAAAUCUGGAGAUCGGGCGUUCGACUCGCCCCCGGUAGAUUUUUUCCUCGAGCAA [U58G G86U]
CUCUCGGUAGCCAAGUUGGUUUAAGGCGCAAGACUUUAAUUUAUCACUACGAAAUCUGGAGAUCGUGCGUUCGACUCGCCCCCGGGAGAUUUUUUCCUCGAGCAA [U58G G66U]
CUCUCGGUAGCCAAGUUGGUUUAAGGCGCAAGACUUUAAUUUAUCACUACGAAAUCUUAAGAUCAGGCGUUCGACUCGCCCCCGGGAGCUUUUUUCCUCGAGCAA [G59A G65A A89C]
